# Laboratory results reported in the supplement of paper PMC12217912.
# This is one part of the list. The full chains were built here from the parent and the listed change. Inactive controls read about 0.05.
# B1: TEV protease; numbered along this chain (parent)
# chain: MGESLFKGPRDYNPISSSICHLTNESDGHTTSLYGIGFGPFIITNKHLFRRNNGTLVVQSLHGVFKVKDTTTLQQHLVDGRDMIIIRMPKDFPPFPQKLKFREPQREERICLVTTNFQTKSMSSMVSDTSCTFPSGDGIFWKHWIQTKDGQCGSPLVSTRDGFIVGIHSASNFTNTNNYFTSVPKNFMELLTNQEAQQWVSGWRLNADSVLWGGHKVFMVKPEEPFQPVKEATQL
# Variants of: B1
# Experiment: raw area under fraction-flipped curve 0-4 h after induction (AUC4h, not background-subtracted), DNA-recorder readout of cleavage of the substrate (dimensionless); higher = more cleavage of the substrate by the protease variant
# Conditions: temperature: 34 °C; time window: 0-4 h after rhamnose induction
# Experimental: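 In vivo DNA recorder in E. coli TOP10(DE3) ΔrhaA at 34 °C. Each TEVp single-site mutant (parent TEVp 0) is paired with a single-site variant of the 7-mer TEVs (canonical ENLYFQ|S). The substrate sits between flexible linkers in a Bxb1-sfGFP-TEVs-SsrA fusion, so cleavage stabilises Bxb1 and speeds flipping of a recombination array, read by NGS. The value is the raw area under the fraction-flipped curve over 0-4 h after rhamnose induction (AUC4h), with ≥20 reads per time point. It is not background-subtracted; inactive controls average about 0.047.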
# 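Also: Bxb1 expression induced with 0.2% (w/v) L-rhamnose at OD600 near 0.5, cultures sampled hourly, flipped fraction per protease–substrate barcode pair counted by paired-end Illumina sequencing.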
Variant,area with substrate ENLCFQS,area with substrate ENLDFQS,area with substrate ENLEFQS,area with substrate ENLHFQS,area with substrate ENLIFQS,area with substrate ENLKFQS,area with substrate ENLNFQS,area with substrate ENLPFQS,area with substrate ENLRFQS,area with substrate ENLSFQS,area with substrate ENLVFQS,area with substrate ENLFFQS,area with substrate ENLLFQS,area with substrate ENLTFQS,area with substrate ENLWFQS,area with substrate ENLQFQS,area with substrate ENLGFQS,area with substrate ENLMFQS
MGESLFKGPRDYNPISSSICHLTNESDGHTTSLYGIGFGPFIITNKHLFRRNNGTLVVQSLHGVFKVKDTTTSQQHLVDGRDMIIIRMPKDFPPFPQKLKFREPQREERICLVTTNFQTKSMSSMVSDTSCTFPSGDGIFWKHWIQTKDGQCGSPLVSTRDGFIVGIHSASNFTNTNNYFTSVPKNFMELLTNQEAQQWVSGWRLNADSVLWGGHKVFMVKPEEPFQPVKEATQL [L73S],0.0635,0.0547,0.0639,0.0698,0.0494,0.0619,0.0621,0.0517,0.0548,0.0525,0.0638,,,,,,,
MGESLFKGPRDYNPISSSICHLTNESDGHTTSLYGIGFGPFIITNKHLFRRNNGTLVVQSLHGVFKVKDTTTTQQHLVDGRDMIIIRMPKDFPPFPQKLKFREPQREERICLVTTNFQTKSMSSMVSDTSCTFPSGDGIFWKHWIQTKDGQCGSPLVSTRDGFIVGIHSASNFTNTNNYFTSVPKNFMELLTNQEAQQWVSGWRLNADSVLWGGHKVFMVKPEEPFQPVKEATQL [L73T],0.0585,0.0615,0.0597,0.0587,0.0701,0.0691,0.0662,0.0408,,0.0421,,0.0704,0.0668,0.0782,0.0586,,,
MGESLFKGPRDYNPISSSICHLTNESDGHTTSLYGIGFGPFIITNKHLFRRNNGTLVVQSLHHVFKVKDTTTLQQHLVDGRDMIIIRMPKDFPPFPQKLKFREPQREERICLVTTNFQTKSMSSMVSDTSCTFPSGDGIFWKHWIQTKDGQCGSPLVSTRDGFIVGIHSASNFTNTNNYFTSVPKNFMELLTNQEAQQWVSGWRLNADSVLWGGHKVFMVKPEEPFQPVKEATQL [G63H],0.0655,0.0687,,0.0713,,0.0722,,0.047,0.0786,0.0494,,0.0826,,,,0.0699,,
MGESLFKGPRDYNPISSSICHLTNESDGHTTSLYGIGFGPFIITNKHLFRRNNGTLVVQSLHGVFKVKDTTTLQQHLVDGRDMIIIRMPKDFPPFPQKLKFREPQREERICLVTTNFQTKSMSFMVSDTSCTFPSGDGIFWKHWIQTKDGQCGSPLVSTRDGFIVGIHSASNFTNTNNYFTSVPKNFMELLTNQEAQQWVSGWRLNADSVLWGGHKVFMVKPEEPFQPVKEATQL [S124F],0.0689,0.0592,0.0648,,0.0754,0.0607,0.0349,0.0486,,0.0514,0.0816,0.0637,0.0596,,,,0.071,
MGESLFKGPRDYNPISSSICHLTNESDGHTTSLYGIGFGPFIITNKHLFRRNNGTLVVQSLHGVFKVKDTTTLQQHLVDGRDMIIIRMPKDFPPFPQKLKFREPQREERICLVTTNFQTKSMSSEVSDTSCTFPSGDGIFWKHWIQTKDGQCGSPLVSTRDGFIVGIHSASNFTNTNNYFTSVPKNFMELLTNQEAQQWVSGWRLNADSVLWGGHKVFMVKPEEPFQPVKEATQL [M125E],0.0663,0.0966,0.0648,0.0517,0.0402,0.0674,0.0724,0.0617,0.0788,0.062,0.0726,0.0827,0.0692,,0.0693,0.0678,,
MGESLFKGPRDYNPISSSICHLTNESDGHTTSLYGIGFGPFIITNKHLFRRNNGTLVVQSEHGVFKVKDTTTLQQHLVDGRDMIIIRMPKDFPPFPQKLKFREPQREERICLVTTNFQTKSMSSMVSDTSCTFPSGDGIFWKHWIQTKDGQCGSPLVSTRDGFIVGIHSASNFTNTNNYFTSVPKNFMELLTNQEAQQWVSGWRLNADSVLWGGHKVFMVKPEEPFQPVKEATQL [L61E],0.071,0.0707,0.0335,0.0626,,0.0732,,,,0.059,0.0762,0.0875,0.0878,0.07,,0.066,,
MGESLFKGPRDYNPISSSICHLTNESDGHTTSLYGIGFGPFIITNKHLFRRNNGFLVVQSLHGVFKVKDTTTLQQHLVDGRDMIIIRMPKDFPPFPQKLKFREPQREERICLVTTNFQTKSMSSMVSDTSCTFPSGDGIFWKHWIQTKDGQCGSPLVSTRDGFIVGIHSASNFTNTNNYFTSVPKNFMELLTNQEAQQWVSGWRLNADSVLWGGHKVFMVKPEEPFQPVKEATQL [T55F],0.0871,0.068,,0.0556,,,0.0473,0.0486,0.113,0.0664,0.0977,0.104,0.0561,,,0.0695,,0.0678
MGESLFKGPRDYNPISSSICHLTNESDGHTTSLYGIGFGPFIITNKHLFRRNNGTLVVQSLHGVFKVKDTTTLQQHLVDGRDMIIIRMPKDFPPFPQKLKFREPQREERICLVTTNFQTKSMGSMVSDTSCTFPSGDGIFWKHWIQTKDGQCGSPLVSTRDGFIVGIHSASNFTNTNNYFTSVPKNFMELLTNQEAQQWVSGWRLNADSVLWGGHKVFMVKPEEPFQPVKEATQL [S123G],0.0694,,0.0574,0.0975,0.0793,0.0714,0.0774,0.0403,0.0679,,,0.0947,0.0688,,0.0651,0.0675,0.0619,
MGESLFKGPRDYNPISSSICHLTNESDGHTTSLYGIGFGPFIITNKHLFRRNNGTLVVQSLHGVFKVKDTTTLQQHLVDGRDMIIIRMPKDFPPFPQMLKFREPQREERICLVTTNFQTKSMSSMVSDTSCTFPSGDGIFWKHWIQTKDGQCGSPLVSTRDGFIVGIHSASNFTNTNNYFTSVPKNFMELLTNQEAQQWVSGWRLNADSVLWGGHKVFMVKPEEPFQPVKEATQL [K98M],0.0672,0.0542,,0.0726,0.0696,,0.0475,0.0763,0.0637,0.0644,0.0684,,0.072,,0.0679,0.0682,,
